In the supplement of paper PMC10369915:
The other results are listed elsewhere or left out. No stated cut-off is given here; in the data, active = 3.2 or more and inactive = the rest. Only a few entries rise above the background.

Legend:
Test in all cases: enrichment score (SH2-bound / input frequency) (ratio); bacterial display of known human phosphotyrosine sites (pTyr-Var adds point mutants) read by sequencing; higher = stronger binding; tyrosines were phosphorylated by kinases first
Settings in all cases: peptide library: pTyr-Var
SHP2 C-SH2 domain E139D = molecular target: SHP2 C-SH2 domain E139D
[1] = molecular target: SHP2 C-SH2 domain wild-type
SHP2 N-SH2 domain L43F = molecular target: SHP2 N-SH2 domain L43F
SHP2 N-SH2 domain T42A = molecular target: SHP2 N-SH2 domain T42A
SHP2 N-SH2 domain T52S = molecular target: SHP2 N-SH2 domain T52S
[2] = molecular target: SHP2 N-SH2 domain wild-type

Measured: enrichment score
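Further: displayed peptides selected on beads carrying the immobilized SH2 domain, with library peptides lacking any tyrosine serving as negative controls.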

B1: WAS_Y83_F84L (peptide)
chain: NPQKSYLIRLY
inactive: SHP2 C-SH2 domain E139D 1.53 | [1] 1.31 | SHP2 N-SH2 domain L43F 1.38 | SHP2 N-SH2 domain T42A 1.25 | SHP2 N-SH2 domain T52S 1.55 | [2] 1.47

B2: WAS_Y83_R86H (peptide)
chain: NPQKSYFIHLY
inactive: SHP2 C-SH2 domain E139D 1.98 | [1] 1.93 | SHP2 N-SH2 domain L43F 2.42 | SHP2 N-SH2 domain T42A 2.13 | SHP2 N-SH2 domain T52S 2.25 | [2] 2.03

B3: WAS_Y83_S82P_YF (peptide)
chain: NPQKPYFIRLF
inactive: SHP2 C-SH2 domain E139D 0.757 | [1] 0.622 | SHP2 N-SH2 domain L43F 0.546 | SHP2 N-SH2 domain T42A 0.617 | SHP2 N-SH2 domain T52S 0.763 | [2] 0.735

B4: WDPCP_Y210_L205F (peptide)
chain: FSALDYKIFYY
inactive: SHP2 C-SH2 domain E139D 2.05 | [1] 2.11 | SHP2 N-SH2 domain L43F 2.14 | SHP2 N-SH2 domain T42A 1.96 | SHP2 N-SH2 domain T52S 2.43 | [2] 1.55

B5: WDPCP_Y210_L205F_YF (peptide)
chain: FSALDYKIFFF
inactive: SHP2 C-SH2 domain E139D 0.906 | [1] 1.08 | SHP2 N-SH2 domain L43F 1.06 | SHP2 N-SH2 domain T42A 0.687 | SHP2 N-SH2 domain T52S 1.06 | [2] 1.32

B6: WDR19_Y1230 (peptide)
chain: KIDAKYKKKIE
inactive: SHP2 C-SH2 domain E139D 0.719 | [1] 0.699 | SHP2 N-SH2 domain L43F 0.808 | SHP2 N-SH2 domain T42A 0.593 | SHP2 N-SH2 domain T52S 0.472 | [2] 0.628

B7: WNT4_Y113_A114V (peptide)
chain: EAAFVYVISSA
inactive: SHP2 C-SH2 domain E139D 0.796 | [1] 0.885 | SHP2 N-SH2 domain L43F 0.713 | SHP2 N-SH2 domain T42A 0.846 | SHP2 N-SH2 domain T52S 0.753 | [2] 0.929

B8: WWOX_Y287_P282A (peptide)
chain: ATKNDYWAMLA
inactive: SHP2 C-SH2 domain E139D 0.805 | [1] 0.813 | SHP2 N-SH2 domain L43F 0.523 | SHP2 N-SH2 domain T42A 0.673 | SHP2 N-SH2 domain T52S 0.668 | [2] 0.851

B9: WWOX_Y293_L291P (peptide)
chain: WAMPAYNRSKL
inactive: SHP2 C-SH2 domain E139D 0.655 | [1] 0.349 | SHP2 N-SH2 domain L43F 0.355 | SHP2 N-SH2 domain T42A 0.374 | SHP2 N-SH2 domain T52S 0.417 | [2] 0.399

B10: XDH_Y1092 (peptide)
chain: NGQAVYAACQT
inactive: SHP2 C-SH2 domain E139D 0.705 | [1] 0.72 | SHP2 N-SH2 domain L43F 0.45 | SHP2 N-SH2 domain T42A 0.467 | SHP2 N-SH2 domain T52S 0.576 | [2] 0.596

B11: XPA_Y257 (peptide)
chain: LEDDMYRKTCT
inactive: SHP2 C-SH2 domain E139D 0.309 | [1] 0.687 | SHP2 N-SH2 domain L43F 0.686 | SHP2 N-SH2 domain T42A 0.511 | SHP2 N-SH2 domain T52S 0.64 | [2] 0.917

B12: XPC_Y669 (peptide)
chain: AAILGYCRGEA
inactive: SHP2 C-SH2 domain E139D 0.815 | [1] 0.854 | SHP2 N-SH2 domain L43F 0.774 | SHP2 N-SH2 domain T42A 0.931 | SHP2 N-SH2 domain T52S 0.822 | [2] 0.954

B13: XPNPEP3_Y455_I450L (peptide)
chain: LEPGIYIPEDD
inactive: SHP2 C-SH2 domain E139D 0.281 | [1] 1.12 | SHP2 N-SH2 domain L43F 0.784 | SHP2 N-SH2 domain T42A 0.849 | SHP2 N-SH2 domain T52S 1.14 | [2] 1

B14: XRCC1_Y515 (peptide)
chain: NGEDPYAGSTD
inactive: SHP2 C-SH2 domain E139D 0.344 | [1] 0.359 | SHP2 N-SH2 domain L43F 0.426 | SHP2 N-SH2 domain T42A 0.353 | SHP2 N-SH2 domain T52S 0.48 | [2] 0.246

B15: XRCC5_Y416_I412V (peptide)
chain: HVKHNYECLVY
inactive: SHP2 C-SH2 domain E139D 1.49 | [1] 1.39 | SHP2 N-SH2 domain L43F 1.2 | SHP2 N-SH2 domain T42A 1.03 | SHP2 N-SH2 domain T52S 1.29 | [2] 1.82

B16: YBX1_Y145 (peptide)
chain: ADRNHYRRYPR
inactive: SHP2 C-SH2 domain E139D 0.267 | [1] 0.268 | SHP2 N-SH2 domain L43F 0.246 | SHP2 N-SH2 domain T42A 0.294 | SHP2 N-SH2 domain T52S 0.267 | [2] 0.318

B17: YBX1_Y145_P149R_YF (peptide)
chain: ADRNHYRRFRR
inactive: SHP2 C-SH2 domain E139D 0.255 | [1] 0.277 | SHP2 N-SH2 domain L43F 0.246 | SHP2 N-SH2 domain T42A 0.243 | SHP2 N-SH2 domain T52S 0.265 | [2] 0.26

B18: YES1_Y159 (peptide)
chain: QAEEWYFGKMG
inactive: SHP2 C-SH2 domain E139D 0.878 | [1] 1.28 | SHP2 N-SH2 domain L43F 0.724 | SHP2 N-SH2 domain T42A 0.892 | SHP2 N-SH2 domain T52S 0.82 | [2] 1.08

B19: YES1_Y194_I198V (peptide)
chain: TTKGAYSLSVR
inactive: SHP2 C-SH2 domain E139D 0.883 | [1] 0.454 | SHP2 N-SH2 domain L43F 0.555 | SHP2 N-SH2 domain T42A 0.867 | SHP2 N-SH2 domain T52S 0.702 | [2] 0.609

B20: YIPF7_Y59_A54T (peptide)
chain: TYGNLYGSRKQ
inactive: SHP2 C-SH2 domain E139D 0.413 | [1] 0.337 | SHP2 N-SH2 domain L43F 0.417 | SHP2 N-SH2 domain T42A 0.374 | SHP2 N-SH2 domain T52S 0.328 | [2] 0.407

B21: YWHAG_Y130 (peptide)
chain: KMKGDYYRYLA
inactive: SHP2 C-SH2 domain E139D 2.4 | [1] 2.47 | SHP2 N-SH2 domain L43F 2.55 | SHP2 N-SH2 domain T42A 2.15 | SHP2 N-SH2 domain T52S 2.01 | [2] 2.44

B22: YWHAG_Y130_R132C (peptide)
chain: KMKGDYYCYLA
inactive: SHP2 C-SH2 domain E139D 1.06 | [1] 0.928 | SHP2 N-SH2 domain L43F 0.807 | SHP2 N-SH2 domain T42A 0.66 | SHP2 N-SH2 domain T52S 1.15 | [2] 1.12

B23: YWHAG_Y130_Y133S (peptide)
chain: KMKGDYYRSLA
inactive: SHP2 C-SH2 domain E139D 1.01 | [1] 0.72 | SHP2 N-SH2 domain L43F 0.85 | SHP2 N-SH2 domain T42A 0.727 | SHP2 N-SH2 domain T52S 0.801 | [2] 0.864

B24: YWHAG_Y131_D129E (peptide)
chain: MKGEYYRYLAE
inactive: SHP2 C-SH2 domain E139D 0.951 | [1] 0.791 | SHP2 N-SH2 domain L43F 0.848 | SHP2 N-SH2 domain T42A 0.539 | SHP2 N-SH2 domain T52S 0.667 | [2] 0.838

B25: YWHAG_Y131_Y133S (peptide)
chain: MKGDYYRSLAE
inactive: SHP2 C-SH2 domain E139D 0.524 | [1] 0.588 | SHP2 N-SH2 domain L43F 0.666 | SHP2 N-SH2 domain T42A 0.509 | SHP2 N-SH2 domain T52S 0.506 | [2] 0.578

B26: YWHAG_Y133 (peptide)
chain: GDYYRYLAEVA
inactive: SHP2 C-SH2 domain E139D 0.819 | [1] 0.888 | SHP2 N-SH2 domain L43F 0.745 | SHP2 N-SH2 domain T42A 0.891 | SHP2 N-SH2 domain T52S 0.71 | [2] 0.838

B27: YWHAG_Y133_R132C (peptide)
chain: GDYYCYLAEVA
inactive: SHP2 C-SH2 domain E139D 0.963 | [1] 1.22 | SHP2 N-SH2 domain L43F 1.16 | SHP2 N-SH2 domain T42A 1.02 | SHP2 N-SH2 domain T52S 2.78 | [2] 1.6

B28: YWHAG_Y133_R132C_YF (peptide)
chain: GDFFCYLAEVA
inactive: SHP2 C-SH2 domain E139D 1.26 | [1] 0.973 | SHP2 N-SH2 domain L43F 0.87 | SHP2 N-SH2 domain T42A 0.839 | SHP2 N-SH2 domain T52S 0.771 | [2] 1.03

B29: YWHAG_Y49 (peptide)
chain: LLSVAYKNVVG
inactive: SHP2 C-SH2 domain E139D 1 | [1] 1.09 | SHP2 N-SH2 domain L43F 1.1 | SHP2 N-SH2 domain T42A 0.975 | SHP2 N-SH2 domain T52S 1.13 | [2] 1.12

B30: YWHAZ_Y48_G53R (peptide)
chain: LLSVAYKNVVR
inactive: SHP2 C-SH2 domain E139D 1.12 | [1] 1.13 | SHP2 N-SH2 domain L43F 1.22 | SHP2 N-SH2 domain T42A 0.673 | SHP2 N-SH2 domain T52S 0.806 | [2] 0.911

B31: YY1_Y383 (peptide)
chain: TGDRPYVCPFD
inactive: SHP2 C-SH2 domain E139D 0.685 | [1] 0.76 | SHP2 N-SH2 domain L43F 0.813 | SHP2 N-SH2 domain T42A 0.837 | SHP2 N-SH2 domain T52S 0.685 | [2] 0.763

B32: YY1_Y383_D380Y (peptide)
chain: TGYRPYVCPFD
inactive: SHP2 C-SH2 domain E139D 0.781 | [1] 0.873 | SHP2 N-SH2 domain L43F 0.751 | SHP2 N-SH2 domain T42A 0.809 | SHP2 N-SH2 domain T52S 0.53 | [2] 1.05

B33: YY1_Y383_D380Y_YF (peptide)
chain: TGFRPYVCPFD
inactive: SHP2 C-SH2 domain E139D 1.2 | [1] 0.977 | SHP2 N-SH2 domain L43F 0.52 | SHP2 N-SH2 domain T42A 0.31 | SHP2 N-SH2 domain T52S 0.61 | [2] 1.23

B34: ZAP70_Y178_R175L (peptide)
chain: AELKLYSGAQT
inactive: SHP2 C-SH2 domain E139D 1.14 | [1] 0.915 | SHP2 N-SH2 domain L43F 0.862 | SHP2 N-SH2 domain T42A 1.05 | SHP2 N-SH2 domain T52S 0.872 | [2] 1.14

B35: ZAP70_Y492_A495V (peptide)
chain: GADDSYYTVRS
inactive: SHP2 C-SH2 domain E139D 0.626 | [1] 0.552 | SHP2 N-SH2 domain L43F 0.572 | SHP2 N-SH2 domain T42A 0.499 | SHP2 N-SH2 domain T52S 0.458 | [2] 0.56

B36: ZAP70_Y492_A495V_YF (peptide)
chain: GADDSYFTVRS
inactive: SHP2 C-SH2 domain E139D 0.747 | [1] 0.728 | SHP2 N-SH2 domain L43F 0.711 | SHP2 N-SH2 domain T42A 0.605 | SHP2 N-SH2 domain T52S 0.611 | [2] 0.914

B37: ZAP70_Y493_YF (peptide)
chain: ADDSFYTARSA
inactive: SHP2 C-SH2 domain E139D 0.319 | [1] 0.296 | SHP2 N-SH2 domain L43F 0.318 | SHP2 N-SH2 domain T42A 0.471 | SHP2 N-SH2 domain T52S 0.311 | [2] 0.383
